Measurements as given in the supplement of paper PMC11417369.
± gives the standard deviation of the averaged measurements. The list shows a part of the results.

The sequences below were run on PfAP2-EXP AP2 domain (GST-tagged) (assay: gcPBM binding intensity (ln(normalized median fluorescence intensity)); higher = stronger DNA binding).
How it was run: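 The highest Masliner-normalised natural-log median intensity across replicate spots of either probe orientation is reported as binding intensity. GST-tagged P. falciparum DNA-binding domains expressed in E. coli were applied for 1 h to an Agilent 4 × 180k array of primer-extended double-stranded 36-bp intergenic genomic probes plus negative controls, and bound protein was detected with Alexa488 anti-GST antibody and scanned at 488 nm.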

**Q.** With “GGACAAAAAAAAAAAATAAAATAAAAATAAATAAAT [XGTACX_negctrl_site106]” as the sequence, how does the “gcPBM binding intensity (ln)” value read?
**A.** The value was 8.09 ± 0.47.

**Q.** Which “gcPBM binding intensity (ln)” value does the source give for “TAACACTTATAAAAAAGTACTGATGAAATAATACTA [XGTACX_site7305]” here?
**A.** Its value is 8.35 ± 0.38.

**Q.** For “AAATATATATGAAGATGTACATATATATATGTAAAT [XGTACX_site4039]”, which “gcPBM binding intensity (ln)” value is on record?
**A.** The value was 8.61 ± 0.35.

**Q.** For “AAAAATTCCAGACACACACACACATATAAATAAATA [CACACA_site1232]”, which “gcPBM binding intensity (ln)” value is on record?
**A.** The value was 8.53 ± 0.48.

**Q.** How did the “gcPBM binding intensity (ln)” value turn out when “AAAAAAAAAAAAAAGAGTACTTTTTTCTCATTACTA [XGTACX_site8353]” was run?
**A.** Its value is 8.35 ± 0.25.

**Q.** Which “gcPBM binding intensity (ln)” value does the source give for “TCTTTTAGTTTTATCCACATAATAAAAAGCAAAAAA [GTGCAC_negctrl_site368]” here?
**A.** The value was 8.28 ± 0.35.

**Q.** With “AAAAAAAAAAAAATAGGTACGTAAATATTTCTTTAA [XGTACX_site6423]” as the sequence, how does the “gcPBM binding intensity (ln)” value read?
**A.** The value was 8.18 ± 0.4.

**Q.** “TATTCTTCAATTTAAAGTACAAAAATTACTATACTT [XGTACX_site6599]” was tested. Which “gcPBM binding intensity (ln)” value did it give?
**A.** Its value is 8.35 ± 0.22.

**Q.** With “AATTAAAATATATATATACACACGTAATTATATATA [CACACA_site3819]” as the sequence, how does the “gcPBM binding intensity (ln)” value read?
**A.** Its value is 8.18 ± 0.37.

**Q.** How did the “gcPBM binding intensity (ln)” value turn out when “ATTGTGGCAATATATTGTACATGTAATATAAATATA [XGTACX_site5415]” was run?
**A.** Its value is 8.71 ± 0.33.

**Q.** How did the “gcPBM binding intensity (ln)” value turn out when “ATGTATGTTTATTACTATTTTGAGAATAGACTATAA [CACACA_negctrl_site1366]” was run?
**A.** The value was 8.18 ± 0.4.

**Q.** How did the “gcPBM binding intensity (ln)” value turn out when “AGTTATATGATTAATACACACAACAAATGTTTCTTC [CACACA_site1092]” was run?
**A.** Its value is 8.36 ± 0.35.

**Q.** Which “gcPBM binding intensity (ln)” value does the source give for “AATTTGGTGTGTGTAAAAGTATGTGTCTATATTTAT [GTGCAC_negctrl_site166]” here?
**A.** Its value is 8.79 ± 0.66.

**Q.** For “AAGAATCATATTTAAACACACATACAGATATATATA [CACACA_site5787]”, which “gcPBM binding intensity (ln)” value is on record?
**A.** Its value is 8.59 ± 0.49.

**Q.** With “ACGACTAAATATATGAGTACATATATATATAAATAT [XGTACX_site7522]” as the sequence, how does the “gcPBM binding intensity (ln)” value read?
**A.** The value was 8.33 ± 0.3.

**Q.** For “TCTAAAATAAATAATGCATGTTAAAAAAAAATATAT [TGCATGCA_site562]”, which “gcPBM binding intensity (ln)” value is on record?
**A.** Its value is 8.8 ± 0.38.

**Q.** Which “gcPBM binding intensity (ln)” value does the source give for “TGCAAAAAATTCCACACACACACACCCATATAAATA [CACACA_site1230]” here?
**A.** Its value is 8.68 ± 0.33.

**Q.** Which “gcPBM binding intensity (ln)” value does the source give for “CAAATATGTCTTATTCGTACACATATATATATATAT [XGTACX_site8817]” here?
**A.** The value was 10 ± 0.38.

**Q.** Which “gcPBM binding intensity (ln)” value does the source give for “AAGAAAATAAAAAATAAGCATAATATGATATGATAT [TGCATGCA_negctrl_site196]” here?
**A.** The value was 8.68 ± 0.39.

**Q.** With “TTTCTTTATAAATTAATATTCACAACACAAAATATA [CACACA_negctrl_site450]” as the sequence, how does the “gcPBM binding intensity (ln)” value read?
**A.** The value was 8.52 ± 0.48.

**Q.** Which “gcPBM binding intensity (ln)” value does the source give for “GTGCATATAAGGAAGTGTACGAAAAAAAATATTCCA [XGTACX_site8490]” here?
**A.** The value was 8.81 ± 0.5.

**Q.** How did the “gcPBM binding intensity (ln)” value turn out when “AAAAATTTGGCATACACACACACACCGACACAGACA [CACACA_site4489]” was run?
**A.** Its value is 8.85 ± 0.4.

**Q.** With “TTATATATATCTAATTGTACAATATTATGTTCATTA [XGTACX_site7479]” as the sequence, how does the “gcPBM binding intensity (ln)” value read?
**A.** The value was 8.51 ± 0.3.

**Q.** With “ATATATAATATAATATGTACATAAAATTTTAACATT [XGTACX_site5773]” as the sequence, how does the “gcPBM binding intensity (ln)” value read?
**A.** Its value is 8.63 ± 0.29.

**Q.** Which “gcPBM binding intensity (ln)” value does the source give for “ATTTATTAAATAAAAAGTACAAAATAAGAAAGAAGA [XGTACX_site6935]” here?
**A.** Its value is 9.1 ± 0.35.

**Q.** “AAAAAAACAGTGAATGCACACATTTAAGATCCATAT [CACACA_site3148]” was tested. Which “gcPBM binding intensity (ln)” value did it give?
**A.** Its value is 8.54 ± 0.39.

**Q.** With “TATATTCCCTTAATCACACATAAATAAAAAAAAATA [CACACA_site6094]” as the sequence, how does the “gcPBM binding intensity (ln)” value read?
**A.** Its value is 8.41 ± 0.45.

**Q.** With GAAATTTTTAATGTGGTGCACAGGAAATTTTTTCTT as the sequence, how does the “gcPBM binding intensity (ln)” value read?
**A.** Its value is 8.76 ± 0.057.

**Q.** Which “gcPBM binding intensity (ln)” value does the source give for “TATTTCCTTTTTCTTGTTATTCATGAGAAAAAATGA [CACACA_negctrl_site482]” here?
**A.** The value was 8.46 ± 0.42.

**Q.** “AAAATAATAATAGGCACACATATATATATATATATA [CACACA_site2058]” was tested. Which “gcPBM binding intensity (ln)” value did it give?
**A.** The value was 10.1 ± 0.33.

**Q.** How did the “gcPBM binding intensity (ln)” value turn out when TACATACATACAGGAGTGCATATATCACAATTATTA was run?
**A.** The value was 8.71 ± 0.31.

**Q.** “AGTATACTCGGACACACACACACATATATATATATA [CACACA_site5031]” was tested. Which “gcPBM binding intensity (ln)” value did it give?
**A.** The value was 10.3 ± 0.2.

**Q.** How did the “gcPBM binding intensity (ln)” value turn out when “AAAAAAAAAAAAACTACACACATACAAATATTTATA [CACACA_site5430]” was run?
**A.** Its value is 8.45 ± 0.66.

**Q.** Which “gcPBM binding intensity (ln)” value does the source give for “AGTGGATGAGGACATACACACACACCGAAGTTGATA [CACACA_site9132]” here?
**A.** Its value is 8.52 ± 0.43.

**Q.** “AAGGAATATATATACATACACACATATATATATATA [CACACA_site1665]” was tested. Which “gcPBM binding intensity (ln)” value did it give?
**A.** Its value is 10 ± 0.32.

**Q.** For “AAAAAAAAAAAAAAAAAAAAAAATATATATATATAT [XGTACX_negctrl_site33]”, which “gcPBM binding intensity (ln)” value is on record?
**A.** The value was 9.99 ± 0.25.

**Q.** With “AATAAAAAGGAAAGGTATATGTGTGCCCTTGTGTTA [TGCATGCA_negctrl_site83]” as the sequence, how does the “gcPBM binding intensity (ln)” value read?
**A.** The value was 8.69 ± 0.49.

**Q.** For “AAATTTTCATGTGTTGCATGCTGAACTATTTTATCA [TGCATGCA_site856]”, which “gcPBM binding intensity (ln)” value is on record?
**A.** Its value is 9.36 ± 0.32.

**Q.** With “AAATAAATAAAAAACACACACAAATAAATAAATATA [CACACA_site2249]” as the sequence, how does the “gcPBM binding intensity (ln)” value read?
**A.** The value was 8.72 ± 0.5.

**Q.** How did the “gcPBM binding intensity (ln)” value turn out when “TATTTTTTCCTTTGTTTTTTAAACTATCTTAACTAA [XGTACX_negctrl_site519]” was run?
**A.** Its value is 8.68 ± 0.35.

**Q.** How did the “gcPBM binding intensity (ln)” value turn out when “TAAAAAATGATAGAAGTGCATAAAATAATATATATA [GTGCAC_site9904]” was run?
**A.** The value was 8.9 ± 0.15.

**Q.** With “ATATAATAAATATATTGTACATATGAATCTACTAAA [XGTACX_site7610]” as the sequence, how does the “gcPBM binding intensity (ln)” value read?
**A.** Its value is 8.24 ± 0.31.

**Q.** “AAAAAATTCCTATATACACACACGCACATATTTATA [CACACA_site6192]” was tested. Which “gcPBM binding intensity (ln)” value did it give?
**A.** The value was 8.55 ± 0.38.

**Q.** How did the “gcPBM binding intensity (ln)” value turn out when “TTTCTATTTCCTTCACATCTTTTCATCTTTTTTTTT [CACACA_negctrl_site1110]” was run?
**A.** Its value is 9.04 ± 0.47.
